PubChem BioAssay AID1240 (Sanford-Burnham Center for Chemical Genomics, 2008)
About 800 (1.6%) of roughly 50,000 compounds showed an effect of 50% or more. The list shows a part of the results.

These molecules were tested against Bcl-2-like protein 10 (Homo sapiens) (UniProt Q9HD36) (assay: Phenotype converters, Bcl-B/TR3 peptide binding displacement, primary biochemical FP (AID 1240;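 note: 0% = Bcl-B with tracer peptide and DMSO and 100% = tracer peptide lacking Bcl-B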)). Conditions: GST-Bcl-B / FITC-TR3 peptide fluorescence polarization; stronger effect = higher value; compound at 3.75 mg/L.
Chain of UniProt Q9HD36 (Q9HD36 whole entry, looked up): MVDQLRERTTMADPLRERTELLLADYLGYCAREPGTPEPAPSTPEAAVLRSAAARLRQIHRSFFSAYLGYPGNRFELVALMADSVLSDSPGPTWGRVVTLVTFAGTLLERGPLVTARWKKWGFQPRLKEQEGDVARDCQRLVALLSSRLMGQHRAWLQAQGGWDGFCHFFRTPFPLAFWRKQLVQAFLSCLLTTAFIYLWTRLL
`C=C(NC(C)=O)C(=O)c1ccc([N+](=O)[O-])cc1` was tested, and the displacement was 18.9%.
Molecule `Cc1cc(C)cc(NC(=O)c2ccccc2Cl)c1` has a displacement of -0.9%.
`O=[N+]([O-])c1cccc(-c2noc(C34CC5CC(CC(C5)C3)C4)n2)c1` was tested, and the displacement was -5.9%.
`Cc1ccc(C(O)(c2ccccc2)c2cnc(C(C)C)n2C)cc1` (stereo not given) showed a displacement of -11.1%.
`COc1c(Cl)ccc(Cl)c1C(=O)Nc1ccc(I)cc1` gave a displacement of -9.5%.
`CCCCOC(=O)c1ccc(NC(=O)CSc2nc3ccccc3o2)cc1` gave a displacement of 2.5%.
`C#Cc1cccc(NC(=O)c2ccc(-c3ccccc3)cc2)c1` was tested, and the displacement was -1.7%.
For `CC(C)N1CCc2c(sc3nc(SCc4ccc(Cl)cc4)n(Cc4ccccc4)c(=O)c23)C1`, the displacement was 19.2%.
With `COc1ccc(C(=O)Nc2nnc(-c3ccco3)s2)cc1` the displacement was -0.9%.
`O=C(Nc1ccc(Cl)c(Cl)c1)Nc1nnc(Cc2cccc(Br)c2)s1` was tested, and the displacement was 4.5%.
Molecule `O=C(/C=C/c1ccc(-c2ccccc2)o1)c1ccc(F)cc1` has a displacement of 54.3%.
For `N#C/C(=N\Nc1ccccc1F)c1nc(-c2ccccc2)cs1`, the displacement was 7.2%.
Work on `Cc1ccc(NC(=O)Cn2c(-c3nonc3N)nc3ccccc32)cc1F` yielded a displacement of -1.2%.
`COc1ccc(-c2cc(=O)n3[nH]c(-c4ccccc4)c(C)c3n2)cc1` was tested, and the displacement was 6.1%.
`C(=N\N1CCN(c2ccccc2)CC1)/c1ccc(-c2ccccc2)cc1` showed a displacement of -8%.
`Cc1ccc2nsnc2c1NC(=O)c1cccc(Br)c1` showed a displacement of -0.7%.
`Cc1ccc(OCC(=O)NCc2ccccn2)c(Br)c1` gave a displacement of -8.7%.
For `CCOC(=O)c1c(NC=O)sc2c1CCC2`, the displacement was -2.1%.
For `COc1ccc(C2CC(=O)C3=C(C2)Nc2ccccc2NC3c2cc(F)ccc2F)cc1` (stereo not given), the displacement was -6%.
In the case of `Cc1cccc(C)c1NC(=O)c1ccc(I)cc1`, the displacement is reported as 9.3%.
For `CC1=C(C(=O)OC(C)C)C(c2cccc(Br)c2)C2=C(CCCC2=O)N1` (stereo not given), the displacement was 4.4%.
In the case of `NC(=O)N/N=C(\C=C\c1ccccc1)C1(O)CCCCC1`, the displacement is reported as -5.9%.
Molecule `COc1ccc(Cc2noc(-c3ccc(C)cc3)n2)cc1` has a displacement of -6.9%.
`O=C(O)c1ccc(NC(=S)N/C(=N/S(=O)(=O)c2ccc(Cl)cc2)c2ccccc2)cc1` showed a displacement of 11.4%.
`Cc1ccc(C)c(OCC(=O)N/N=C/c2ccc(OC(=O)c3ccc4c(c3)OCO4)cc2)c1` gave a displacement of 0.1%.
Molecule `C=C(C)C(=O)Nc1cccc(C(=O)c2cccc(NC(=O)C(=C)C)c2)c1` has a displacement of 13.6%.
`Cc1ccc(S(=O)(=O)N/N=C/c2cc(Br)cc(Br)c2O)cc1` showed a displacement of 9.1%.
`CCOC(=O)c1cccc(N2C(=O)C3C4c5ccccc5C(CC)(c5ccccc54)C3C2=O)c1` (stereo not given) was tested, and the displacement was -17.4%.
`Cc1ccc2[nH]c(C)c(CC(=O)N/N=C/c3ccc[nH]3)c2c1` showed a displacement of 7.3%.
`Cc1ccc(CN2CCN(Cc3ccncc3)CC2)cc1` gave a displacement of 6.8%.
`O=S(=O)(NC1c2ccccc2Oc2ccccc21)c1ccccc1` showed a displacement of -0.2%.
`CN1CCN(C(=O)c2cnn3c2NC(c2ccc(Br)cc2)CC3C(F)(F)F)CC1` (stereo not given) showed a displacement of 0.5%.
Molecule `COc1cc(/C=C2/SC(=S)N(C)C2=O)ccc1OCCOc1ccc(Br)cc1` has a displacement of 2.3%.
In the case of `CCOc1ccc(/C=C2\C(=O)NC(=O)N(c3cccc(Br)c3)C2=O)cc1Cl`, the displacement is reported as -1%.
`N/C(Cc1ccc([N+](=O)[O-])cc1)=N\OC(=O)c1ccc([N+](=O)[O-])cc1` gave a displacement of -11.5%.
For `COc1ccc(Br)cc1/C=C/C(=O)Nc1ccc(C(C)=O)cc1`, the displacement was -35.6%.
With `CC1(C)Cc2ccccc2C(N/N=C/c2ccc(Cl)cc2)=N1` the displacement was -3.6%.
For `Cc1ccc(NNC(=O)C(O)(c2ccccc2)c2ccccc2)c(Br)c1`, the displacement was -6.3%.
With `CC(NC(=O)CN1CCCCC1)C1COc2ccccc2O1` (stereo not given) the displacement was -7.7%.
`COC(=O)C1=C(C)NC(=O)NC1c1ccc(OC(C)C)cc1` (stereo not given) was tested, and the displacement was 0.3%.
With `COc1ccccc1NC(=O)c1ccc(N2C(=O)c3ccc([N+](=O)[O-])cc3C2=O)cc1` the displacement was 3.3%.
Molecule `CCC1=NN2C(=N)/C(=C/c3ccc(OC(=O)c4ccc(Cl)cc4)c(OC)c3)C(=O)N=C2S1` has a displacement of 0.8%.
Molecule `CCCOc1ccc(C2NC(=O)NC(C)=C2C(=O)OCC2CCCO2)cc1` (stereo not given) has a displacement of 1.7%.
In the case of `O=C(NC(NC(=O)c1ccco1)c1ccc(F)cc1)c1ccco1`, the displacement is reported as -13.7%.
`CC(Oc1ccccc1)C(=O)Nc1ccc(C(N)=O)cc1` (stereo not given) showed a displacement of -4.3%.
Molecule `Cc1occc1C(=O)N/N=C/c1ccc(Cl)cc1` has a displacement of 3.9%.
`C=CCn1c(SCc2ccc(C(=O)NCCO)cc2)nc2sc(C)c(C)c2c1=O` gave a displacement of -5.2%.
For `CC1CCN(C(=O)c2ccccc2NC(=O)c2ccco2)CC1`, the displacement was 1.7%.
`CCCOc1ccc(N2C(=O)CC(N3CCC(O)CC3)C2=O)cc1` (stereo not given) showed a displacement of -3.5%.
In the case of `CC1=C(C(=O)OCCc2ccccc2)C(c2ccccc2Cl)NC(=O)N1` (stereo not given), the displacement is reported as 1.9%.
In the case of `COc1ccc(/C=C2\SC(=S)N(Cc3ccco3)C2=O)cc1OC`, the displacement is reported as 21.8%.
`N#Cc1c(-c2ccc(Br)cc2)cc(-c2ccc3c(c2)OCO3)c(C#N)c1N` showed a displacement of 4.5%.
Molecule `Cc1cc(C)n(-c2ccc3cccc([N+](=O)[O-])c3n2)n1` has a displacement of 2.2%.
For `CCOC(=O)CCc1c(C)nc2cc(-c3ccc(C)cc3)[nH]n2c1=O`, the displacement was -0.8%.
Molecule `Cc1ccc(S(=O)(=O)NCCSc2ccccn2)cc1[N+](=O)[O-]` has a displacement of -8.2%.
With `CCOc1cc(/C=C/C(=O)O)cc(I)c1OC` the displacement was -15.9%.
Work on `O=C(COc1ccc([N+](=O)[O-])cc1)Nc1ccc2oc(-c3cccc(Cl)c3)nc2c1` yielded a displacement of 12.7%.
`Clc1ccc(Cn2c(CNc3ccc(Cl)cc3)nc3ccccc32)cc1` gave a displacement of 7.8%.
In the case of `Cc1cc(Br)ccc1N1C(=O)/C(=C/c2cccs2)C(=O)NC1=S`, the displacement is reported as -5.1%.
`CN1CCN(C(=O)c2cc3nc(-c4ccc(Cl)c(Cl)c4)cc(C(F)(F)F)n3n2)CC1` gave a displacement of -8.1%.
Molecule `CCOc1ccc(N2C(=O)NC(=O)/C(=C\c3ccc(-c4ccc([N+](=O)[O-])cc4OC)o3)C2=O)cc1` has a displacement of 23%.
`O=C(CCC1CCCCC1)NCCc1ccccc1` gave a displacement of -3%.
Work on `O=C(NCc1cccnc1)c1cc(-c2ccccc2)nc2ccccc12` yielded a displacement of -18%.
Molecule `CCOC(=O)N1CCN(C(=O)Nc2ccc3nc(-c4ccccc4)c(-c4ccccc4)nc3c2)CC1` has a displacement of -10.5%.
`OCCCN=Cc1c(O)n(-c2c(Cl)cccc2Cl)c2ccccc12` was tested, and the displacement was -8.9%.
With `Cc1ccc(N2C(=O)C(Cl)=C(N3CCOCC3)C2=O)c(C)c1` the displacement was 9.2%.
`COc1ccc(NC(=O)CN(c2ccc(F)cc2)S(=O)(=O)c2ccccc2)cc1OC` gave a displacement of -1.7%.
Molecule `CCOc1ccc(N2COc3ccc4ccccc4c3C2)cc1` has a displacement of 9.1%.
`CCOC(=O)c1c(NC(=O)c2ccccc2OC)sc(C(=O)Nc2ccccc2F)c1C` showed a displacement of -2.3%.
`CCOC(=O)CSc1nsc(SCC(=O)OCC)c1C#N` was tested, and the displacement was 1.8%.
Molecule `COc1ccc(-c2noc(-c3ccc(C(C)(C)C)cc3)n2)cc1OC` has a displacement of 0.5%.
Work on `CC(=O)COc1ccc2c(-c3ccccc3)cc(=O)oc2c1` yielded a displacement of 14.2%.
With `COc1ccccc1Nc1ncc(F)c(N2CCOCC2)n1` the displacement was 6.4%.
With `CCC(=O)Nc1ccc(I)cc1Cl` the displacement was 7.5%.
In the case of `O=C1c2ccccc2-c2ccc(S(=O)(=O)Nc3ccc(S(=O)(=O)Nc4nccs4)cc3)cc21`, the displacement is reported as 4.3%.
`CC1(C)CC(=O)C(C(/C=C/c2ccccc2)C2=C(O)CC(C)(C)CC2=O)C(=O)C1` (stereo not given) gave a displacement of 6.5%.
For `COc1ccc(C2Nc3ccc(C(=O)c4ccccc4)cc3NC3=C2C(=O)CCC3)c(OC)c1` (stereo not given), the displacement was -5.3%.
In the case of `O=C(N/N=C/CCc1ccccc1)c1cccc([N+](=O)[O-])c1`, the displacement is reported as 0.9%.
`CCN(CC)c1ccc(/C=C2\SC(=S)NC2=O)c(OC)c1` showed a displacement of -5%.
With `Cc1cc(C)c(OCCN2CCCC2)c(Cl)c1` the displacement was 7.1%.
With `CC1=C(C#N)c2nc(N)c(C#N)c(C)c2/C1=C/c1ccc(-c2ccccc2[N+](=O)[O-])o1` the displacement was 1.3%.
Molecule `O=C(Nc1cccc2nsnc12)c1ccc(Br)o1` has a displacement of 69.6%.
`CCC(C(=O)Nc1cc(Cl)ccc1OC)c1ccccc1` (stereo not given) gave a displacement of -3%.
`COc1cc(OC)c(OC)cc1CNCC1COc2ccccc2O1` (stereo not given) gave a displacement of -9.7%.
For `CCc1ccc2oc(-c3cccc(NC(=O)/C=C/c4cccc([N+](=O)[O-])c4)c3)nc2c1`, the displacement was -19.1%.
Molecule `O=C(O)CCCN1C(=O)/C(=C\c2cccc(O)c2)SC1=S` has a displacement of 0.6%.
`CCOC(=O)c1ccc(Nc2nc3nonc3n3cnnc23)cc1` gave a displacement of -10%.
Work on `Cn1c(C(=O)c2ccccc2)nc2ccccc21` yielded a displacement of 10.1%.
`N#CSc1cnc(NC2CCCCC2)s1` gave a displacement of -5.8%.
For `Cn1c(O)c(N=NC(=O)COc2ccc3ccccc3c2)c2ccccc21`, the displacement was 32.7%.
`Cc1oc2ccc(OCC(=O)OCc3ccccc3)cc2c1C(=O)OC(C)C` was tested, and the displacement was 8.1%.
Molecule `Cc1ccc(OCC(=O)NCCCN2CCOCC2)c(Br)c1` has a displacement of 4.3%.
In the case of `CN=C(Nc1ccc(I)cc1)SC1CC(=O)N(c2ccccc2F)C1=O` (stereo not given), the displacement is reported as 0.1%.
With `COc1cccc(-c2nc(-c3ccccc3)no2)c1` the displacement was -6.1%.
Molecule `O=C(O)C1C2CCC(C2)C1C(=O)Nc1nc2ccccc2s1` (stereo not given) has a displacement of 1.4%.
For `CS/C(N)=N\N=C\c1cc([N+](=O)[O-])ccc1O`, the displacement was -8.3%.
Molecule `COc1cccc(OCCOc2ccc(/C=N/n3cnnc3)cc2OC)c1` has a displacement of -8.1%.
Work on `O=c1[nH]c(-c2ccc(-c3ccc(F)cc3)o2)nc2sc3c(c12)CCCC3` yielded a displacement of -13.3%.
With `Cc1ccccc1C(=O)Nc1nc2ccc(Cl)cc2s1` the displacement was 2.6%.
`Cc1ccc2oc(-c3ccc(NC(=O)Cc4ccccc4)cc3O)nc2c1` was tested, and the displacement was 7.1%.
In the case of `Cc1c(C(=O)NCCc2ccccc2)cccc1[N+](=O)[O-]`, the displacement is reported as -8%.
`COC(=O)c1cc(-c2cccs2)nc2ccccc12` was tested, and the displacement was -2.7%.
`CC(C)Oc1ccc(/C=N/NC(=O)C(=O)NC2CCCC2)cc1` was tested, and the displacement was 10.8%.
`O=S(=O)(NC(c1cccs1)C(Cl)(Cl)Cl)c1ccc(Cl)cc1` (stereo not given) was tested, and the displacement was 7%.
`COc1ccc(CCNC(=O)CSc2nc3ccccc3s2)cc1OC` gave a displacement of 0.6%.
In the case of `CC(=O)Nc1sc(C(=O)OC(C)C)c(C)c1C(N)=O`, the displacement is reported as -1.2%.
For `CCOc1cc(C(=O)Nc2ccc(Br)cc2F)cc(OCC)c1OCC`, the displacement was -2.8%.
Molecule `COc1cccc(C(=O)N2CCN(Cc3ccc(Cl)cc3)CC2)c1` has a displacement of -17%.
For `O=C1CC(N2CCN(Cc3ccc4c(c3)OCO4)CC2)C(=O)N1Cc1ccc(Cl)cc1` (stereo not given), the displacement was -3.1%.
`CC(Oc1ccccc1)C(=O)Nc1ccccc1C(=O)O` (stereo not given) was tested, and the displacement was 1.7%.
